Paper PMC7819943, “Rice protein-binding microarrays: a tool to detect cis-acting elements near promoter regions in rice”
Some of the results follow.

What follows are sequences tested against T1, OsWOX13 (Oryza sativa, UniProt Q5QMM3 1-267) (assay: protein-binding microarray (RPBM); PBS, 2% BSA, 51.3 ng/ul salmon testes DNA, 50 uM zinc acetate, 200 nM TF, 25 C, 1 h; high values mean tight binding). Conditions: protein: recombinant; tags: N-terminal polyhistidine and DsRed monomer fusion (pET32a); label: CyDye5-dUTP incorporated in the synthesized complementary strand; 3' TTTTT single-stranded linker to array surface; dsDNA, one strand shown.
T1 sequence: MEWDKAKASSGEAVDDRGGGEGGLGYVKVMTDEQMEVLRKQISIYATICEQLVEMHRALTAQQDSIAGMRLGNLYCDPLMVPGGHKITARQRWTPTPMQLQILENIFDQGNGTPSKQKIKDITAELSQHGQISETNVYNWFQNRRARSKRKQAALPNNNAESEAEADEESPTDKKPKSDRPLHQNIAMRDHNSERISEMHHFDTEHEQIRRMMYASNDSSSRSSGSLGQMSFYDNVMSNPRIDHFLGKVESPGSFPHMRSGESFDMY
Procedure, shortened: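 Transcription factors were each fused at the N-terminus to a polyhistidine tag plus DsRed and expressed in E. coli BL21-CodonPlus before Ni–NTA purification. Binding to a double-stranded custom Agilent array was carried out with 200 nM protein at 25 °C for 1 h in PBS, 2% BSA, salmon testes DNA and 50 µM zinc acetate. The binding signal is per-feature fluorescence intensity, in arbitrary units, on an Axon 4000B scanner.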
“ATTAAGCCTAATTAATCCATCATTAGTAAATATTTACTGTCGGAGTCACCTAGTGCAG” was tested, and the binding signal was 8920 fluorescence intensity (a.u.).
In the case of “GTTTTAGCAAGTGATTGAAAATAACTCATGGGAGCTGTCGCGGAGTCACCTAGTGCAG”, the binding signal is reported as 31800 fluorescence intensity (a.u.).
In the case of “TCAAAGTAGATTGACTCCAATTGAACTGGCTTTGGCCGTTCGGAGTCACCTAGTGCAG”, the binding signal is reported as 41200 fluorescence intensity (a.u.).
With “TCGTTTGATTAACCAGGAATATTCGTCTTAATTTAGCTACCGGAGTCACCTAGTGCAG” the binding signal was 28800 fluorescence intensity (a.u.).
With “CAAAATAATTAATTGCATGATCCCGGTTTGTTAGGGGTCGCGGAGTCACCTAGTGCAG” the binding signal was 48800 fluorescence intensity (a.u.).
“AGGTAACTGACTGCCACTTTACATTGTGCAGTTAGTGCGTCGGAGTCACCTAGTGCAG” was tested, and the binding signal was 24900 fluorescence intensity (a.u.).
In the case of “TTGAATATAATTTGCGTATCCACCGTTTATGTAATCAATCCGGAGTCACCTAGTGCAG”, the binding signal is reported as 6490 fluorescence intensity (a.u.).
In the case of “GGATTAATTAGGCTTAATAAATTCGTGTCGCAATTTACATCGGAGTCACCTAGTGCAG”, the binding signal is reported as 29300 fluorescence intensity (a.u.).
“GTCGTCCTCGCCGCCGTCGCTCTCACCACCACCACACTATCGGAGTCACCTAGTGCAG” was tested, and the binding signal was 7960 fluorescence intensity (a.u.).
In the case of “GCTGTTTAATTAAATTAAATGTAAATGCCTTACAGCTTATCGGAGTCACCTAGTGCAG”, the binding signal is reported as 29000 fluorescence intensity (a.u.).
For “TAGCATGATTTCTTATATATTGACCAAATTTAGCAACAAACGGAGTCACCTAGTGCAG”, the binding signal was 6230 fluorescence intensity (a.u.).
“TTAATTGGTTTACACATCTTTATCGAACCATGTACATGATCGGAGTCACCTAGTGCAG” was tested, and the binding signal was 39900 fluorescence intensity (a.u.).
With “CAAGACACGAACTTGATAGATACAGTAGGACGATGGCATGCGGAGTCACCTAGTGCAG” the binding signal was 7940 fluorescence intensity (a.u.).
For “TTATAAATAAATTAGTATATCAAATATAAAATATCATTCACGGAGTCACCTAGTGCAG”, the binding signal was 11100 fluorescence intensity (a.u.).
“CGTTCTTGTTCTTGTTCTTGTCCTCCTCTGCTTTAATTTTCGGAGTCACCTAGTGCAG” was tested, and the binding signal was 3890 fluorescence intensity (a.u.).
With “AATTAATTAATCAAGGTTGTAACCACACAGATCGATGGACCGGAGTCACCTAGTGCAG” the binding signal was 41700 fluorescence intensity (a.u.).
With “AGGGGTAAATCACAGTTACTGTACCAATCCAAAATATTTGCGGAGTCACCTAGTGCAG” the binding signal was 5110 fluorescence intensity (a.u.).
In the case of “ACTTCCAATATAATTATTCTTTGTTTTCACAAATTTCAATCGGAGTCACCTAGTGCAG”, the binding signal is reported as 4820 fluorescence intensity (a.u.).
In the case of “TCGAAATTTCGAAATCAAATCGGTGCGAGCGATGAGCCGACGGAGTCACCTAGTGCAG”, the binding signal is reported as 4710 fluorescence intensity (a.u.).
With “TCAAATTATTGGCGAATATACAAAGCGGCAAGTGGTGTACCGGAGTCACCTAGTGCAG” the binding signal was 5530 fluorescence intensity (a.u.).
For “AAGAGTTTATTGATGAGTAGGAATCGACGTATTCTAGATTCGGAGTCACCTAGTGCAG”, the binding signal was 3560 fluorescence intensity (a.u.).
“TCAATCAATCAATTAATTAGTAATTCAAAGTACTAAACACCGGAGTCACCTAGTGCAG” was tested, and the binding signal was 40200 fluorescence intensity (a.u.).
“TACTCCAATTGATAGCCTGCAATATTCGCTTTCAGAATTTCGGAGTCACCTAGTGCAG” was tested, and the binding signal was 6160 fluorescence intensity (a.u.).
“AATGTTAATTTTAAAATCCTTAATACACCTTAAAATCACCCGGAGTCACCTAGTGCAG” was tested, and the binding signal was 15800 fluorescence intensity (a.u.).
With “GTCTTAAACAATTGATTATATACATCCAAGCATATCTCCACGGAGTCACCTAGTGCAG” the binding signal was 13800 fluorescence intensity (a.u.).
For “CTAATTGACATGAAACAAACTTTTCTAAACCTAATCAGAGCGGAGTCACCTAGTGCAG”, the binding signal was 35900 fluorescence intensity (a.u.).
With “AATCAATTTAATAATTGATTAAACAGAGCAAATTTTAGCTCGGAGTCACCTAGTGCAG” the binding signal was 65100 fluorescence intensity (a.u.).
In the case of “CTGACCACACTAAATTAGTATGTAGTATACACAGGCATACCGGAGTCACCTAGTGCAG”, the binding signal is reported as 3860 fluorescence intensity (a.u.).
For “GGCCCTGGTGATTTGACAGGTGGGCTGGGCTACAACGAGCCGGAGTCACCTAGTGCAG”, the binding signal was 8490 fluorescence intensity (a.u.).
With “ACACATAATGTAATCTATTTTGATATAACCAAAAGCTGTTCGGAGTCACCTAGTGCAG” the binding signal was 7540 fluorescence intensity (a.u.).
In the case of “TTACATGGTAACCGATTGACAGTGTACTCTACAAACGTATCGGAGTCACCTAGTGCAG”, the binding signal is reported as 3810 fluorescence intensity (a.u.).
“ACATTTAATTTGTTCCTCTCTGATACTACTAGACCCCAAACGGAGTCACCTAGTGCAG” was tested, and the binding signal was 19500 fluorescence intensity (a.u.).
“ATGTTCCTAATTAGGGGCAGACGATTTCTTGAACTGTACTCGGAGTCACCTAGTGCAG” was tested, and the binding signal was 12500 fluorescence intensity (a.u.).
“GGTGGTAATTGTTTTACTCGCATACCACAAAATCTCAGTTCGGAGTCACCTAGTGCAG” was tested, and the binding signal was 7950 fluorescence intensity (a.u.).
“TTTTATTTGGCGTAAATTGAGCGTTGTAAGTTATTGGCTACGGAGTCACCTAGTGCAG” was tested, and the binding signal was 4080 fluorescence intensity (a.u.).
“AAACAGTTTTCCCCAAAATTGATTGTAAATATACATATACCGGAGTCACCTAGTGCAG” was tested, and the binding signal was 14900 fluorescence intensity (a.u.).
In the case of “GAAGATTGGATAGTCACAGTGTGTGGAGAAATTGAACGACCGGAGTCACCTAGTGCAG”, the binding signal is reported as 24600 fluorescence intensity (a.u.).
“GTGTCCATCAATCCATCCATCCATGCTTATTTTCTCAAGACGGAGTCACCTAGTGCAG” was tested, and the binding signal was 7760 fluorescence intensity (a.u.).
“GTAACTATAGATAATTTGGAGCTAGTAGTTGGTTATACTACGGAGTCACCTAGTGCAG” was tested, and the binding signal was 3270 fluorescence intensity (a.u.).
With “CACGTGCCAATCATGATCTAGCTACATCTAGACAAGGGGACGGAGTCACCTAGTGCAG” the binding signal was 10800 fluorescence intensity (a.u.).
For “ATTTTAATAAAATTTGGTCACATTTAAACAAAATTTGCCACGGAGTCACCTAGTGCAG”, the binding signal was 4240 fluorescence intensity (a.u.).
For “CTCAGATTTGATGTGACACATTTGCATCAAGAAGCAAAGGCGGAGTCACCTAGTGCAG”, the binding signal was 11700 fluorescence intensity (a.u.).
